Screen size: about 52,000 compounds; about 4,300 (8.3%) were called active. No stated cut-off is given here; in the data, active means survival mostly below about 52% (no sharp cut-off); inactive means mostly above about 56%. Some of the results follow.
What follows are compounds tested on DeltatarO mutant (assay: S. aureus survival, RN4220 and DeltatarO strains – OD600, teichoic acid synthesis inhibitors, primary screen (AID 463173)). Conditions: S. aureus RN4220 wild type/DeltatarO growth, OD600, 18 h, active compounds read low, screened at 18.75 µg/mL (by protocol).

Row | Compound | survival
1 | COc1cc(Nc2nc3c(S(=O)(=O)c4cccc(Cl)c4)nnn3c3ccsc23)cc(OC)c1 | inactive: 112%
2 | CCOc1ccc(NC(=O)Cn2nc(CC)n3c(cc4sccc43)c2=O)cc1 | inactive: 92%
3 | Cc1ccc2c(c1)c1c(c(=O)n(-c3cccc(Cl)c3)c(=O)n1CC(N)=O)n2C | inactive: 74%
4 | COc1ccc(CNCC(O)c2nnn(C)n2)cc1OC (stereo unspecified) | inactive: 91%
5 | Cc1ccc(C2N3CC4(C)CN2CC(c2ccccc2)(C3)C4=O)cc1 (stereo unspecified) | inactive: 93%
6 | CCn1cc(/C=C(\NC(=O)c2ccccc2Cl)C(=O)NCCCn2ccnc2)c2ccccc21 | inactive: 125%
7 | CCOc1ccc(C(=O)Nc2ccc(C(=O)OCc3cc(=O)n4c(C)csc4n3)cc2)cc1 | inactive: 88%
8 | Cc1ccc(CNC(=O)c2ccc(N3Cc4ccccc4Oc4ncccc43)s2)cc1 | inactive: 81%
9 | CCOCCCNC(=O)C(c1ccc(Cl)cc1)N(Cc1ccc2c(c1)OCO2)C(=O)c1ccc(NC(C)=O)cc1 (stereo unspecified) | inactive: 142%
10 | CCC(=O)Nc1ccc(-c2nc3ncccc3o2)cc1C | inactive: 73%
11 | Oc1c(C(c2ccc(Cl)cc2Cl)N2CCN(Cc3ccccc3)CC2)sc2nc(-c3ccco3)nn12 (stereo unspecified) | inactive: 99%
12 | Cc1ccccc1-n1nc(C)c2c1CC(C)(C)CC2=O | inactive: 81%
13 | CCOc1ccc2nc(Cl)c(CN(Cc3ccco3)C(=O)c3ccco3)cc2c1 | inactive: 108%
14 | Cc1ccc(CNC(=O)Cn2ccn(-c3ccc(F)c(F)c3)c(=O)c2=O)cc1 | inactive: 82%
15 | CCCn1c(=N)c(C(=O)NCc2ccco2)cc2c(=O)n3cc(C)ccc3nc21 | inactive: 54%
16 | CCC(Sc1nc2ccncc2[nH]1)C(=O)Nc1cc(C)ccc1C (stereo unspecified) | inactive: 132%
17 | OC(c1ccccc1)c1nc2ccccc2n1Cc1c(F)cccc1Cl (stereo unspecified) | inactive: 74%
18 | CC1(C)CC(N=Cc2c(O)[nH]c(=O)[nH]c2=O)CC(C)(C)N1 | inactive: 85%
19 | Cc1oc2ncnc(N3CCOCC3)c2c1C(=O)Nc1ccc(Br)cc1F | inactive: 135%
20 | CCOc1ccc(-c2cc3c(=O)n(CC(=O)NCc4ccccc4)ccn3n2)cc1 | inactive: 83%
21 | Fc1ccc(-n2nc(-c3ccccc3)c3cnc4ccccc4c32)cc1Cl | inactive: 129%
22 | Cc1ccc(Cl)cc1NC(=O)c1cc(S(=O)(=O)N2CCOCC2)cn1C | inactive: 79%
23 | COc1ccccc1CNc1ncnc2c1nc1n2CCCC1 | inactive: 80%

Row | Compound | survival
24 | O=C(O)c1ccc2c(c1)N(Cc1ccc(F)cc1)C(=O)c1ccccc1S2=O (stereo unspecified) | inactive: 89%
25 | Cc1cc(NC(=O)c2cc(-c3ccc(F)cc3)on2)nn1Cc1ccc(Cl)cc1 | inactive: 57%
26 | COc1ccccc1CNS(=O)(=O)c1c(C)nc2sc(C)cn2c1=O | inactive: 70%
27 | O=C(NCCc1ccccc1)c1ccc2c(c1)CCN2S(=O)(=O)c1ccc(Cl)cc1 | inactive: 105%
28 | Cc1ccc2c(CC(=O)Nc3ccc(S(=O)(=O)N4CCCC(C)C4)cc3)coc2c1 (stereo unspecified) | inactive: 67%
29 | CCCCN(C)C(=O)C1CCC(Cn2c(=O)[nH]c3ccsc3c2=O)CC1 (stereo unspecified) | active: 0%
30 | O=C(Cn1c(=O)c2cccn2c2ccc(F)cc21)Nc1cccc(F)c1 | inactive: 64%
31 | COC(=O)c1cc(NC(=O)Cn2ncc3c([nH]c4ccccc43)c2=O)cc(C(=O)OC)c1 | inactive: 66%
32 | Cc1ccccc1OCC(=O)Nc1ccccc1C(=O)OCc1cc(=O)n2nc(C3CC3)sc2n1 | inactive: 92%
33 | Cc1cccc(NC(=O)c2oc3ccccc3c2NC(=O)Cc2coc3cc(C)cc(C)c23)c1 | inactive: 87%
34 | Cc1cccc(-c2nc3cc(NC(=O)COc4ccccc4F)ccc3o2)c1 | inactive: 103%
35 | Cc1ccc(C(=O)c2cn(Cc3ccccc3)c3ccccc3c2=O)cc1 | inactive: 75%
36 | O=C(CN1CCC(NC(=O)Nc2ccccc2-c2ccccc2)CC1)NCc1ccco1 | inactive: 78%
37 | Cc1cc(N2CCN(c3ccc(F)cc3)CC2)n2cnnc2n1 | inactive: 79%
38 | COc1ccc(NC(=O)Cn2ccn(-c3ccc(C)c(C)c3)c(=O)c2=O)cc1Cl | inactive: 72%
39 | Cc1ccc(Oc2ccc(C#N)c(C#N)c2)c(-n2nc3ccccc3n2)c1 | inactive: 102%
40 | Cc1ccc(-c2c3c(=O)n(C)c(=O)n(C)c3c3c(C)nc4ccccc4n23)cc1 | inactive: 81%
41 | Cn1cnnc1SCC(=O)c1ccccc1 | inactive: 71%
42 | COc1ccc(Cl)cc1NC(=O)CSc1nc(=O)[nH]c2c1CCC2 | inactive: 94%
43 | CN(C)Cc1ccc(C(=O)O)o1 | inactive: 70%
44 | O=C(CSc1nc(=O)n(Cc2ccccn2)c2c1CCC2)Nc1cccc(Cl)c1 | inactive: 94%
45 | COCCNC(=O)CSc1nc(-c2ccc(C)cc2)[nH]c1-c1ccc(OC)cc1 | inactive: 84%
46 | CC(C)CCNC(=O)C1CCC(CNS(=O)(=O)c2cccc3nsnc23)CC1 (stereo unspecified) | inactive: 127%

Row | Compound | survival
47 | CCc1ccc(NC(=O)CN2C(C(=O)OC)=C(c3ccccc3)c3ccccc3S2(=O)=O)cc1 | inactive: 55%
48 | O=C(O)c1ccccc1SC1CC(=O)N(c2ccc(N3CCCCC3)cc2)C1=O (stereo unspecified) | inactive: 90%
49 | CCN(CC)S(=O)(=O)c1nnc(NC(=O)c2ccc(C)cc2)s1 | inactive: 63%
50 | C=CCN1C(=O)C2C(C(=O)NC)C3C=CC2(O3)C1C(=O)NC1CCCCC1 (stereo unspecified) | inactive: 105%
51 | O=C(CN(C(=O)c1ccc(Cl)nc1)c1ccc2c(c1)OCCO2)NCc1ccco1 | inactive: 90%
52 | CC1CN(C(=O)N2CCC(C(=O)NCc3ccco3)CC2)c2ccccc2O1 (stereo unspecified) | inactive: 73%
53 | CC1CCN(c2nc3ccccc3nc2C(F)(F)F)CC1 | inactive: 75%
54 | CCOc1cccc(C2c3c(oc4ccc(F)cc4c3=O)C(=O)N2c2cc(C)ccn2)c1 (stereo unspecified) | inactive: 136%
55 | Cc1cccc(CN2C(=O)c3ccccc3Sc3ccc(C(=O)NCCCN4CCOCC4)cc32)c1 | active: 37%
56 | O=C(Nc1nc2ccccc2n1CCOc1ccccc1Cl)c1ccccc1 | active: 17%
57 | Cc1ccc(Cl)cc1N1CCN(C(=O)CCc2nnc3n(C)c(=O)c4ccccc4n23)CC1 | inactive: 63%
58 | Cc1ccc(NC(=O)CSc2nc3n[nH]c(C)c3c(=N)n2-c2ccccc2C)cc1C | inactive: 77%
59 | CCN(Cc1ccccc1)C(=O)c1cn(-c2cccc(OC)c2)c(=O)c2ccccc12 | inactive: 68%
60 | COc1ccc(CCN2C(=O)CN(C3CCCCCC3)C(=O)C2c2ccc(Cl)cc2)cc1OC (stereo unspecified) | inactive: 81%
61 | O=C(Cn1ncc2c3ccccc3n(Cc3ccccc3)c2c1=O)NCCCN1CCCCC1 | inactive: 103%
62 | COc1ccccc1C1C(C(=O)Nc2ccccc2)=C(C)Nc2nc(-c3ccccc3)nn21 (stereo unspecified) | inactive: 52%
63 | O=C(C1CC(c2ccccc2O)=NO1)N1CCCC1 (stereo unspecified) | inactive: 91%
64 | O=c1c2ccccc2nc(SCCN2CCCCC2)n1CC1CCCO1 (stereo unspecified) | inactive: 84%
65 | CC(=O)N1CCc2cc(S(=O)(=O)NC(Cc3ccccc3)C(=O)Nc3cc(C)cc(C)c3)ccc21 (stereo unspecified) | inactive: 69%
66 | COc1ccccc1N1CCN(Cc2nc(-c3cc(OC)c(OC)c(OC)c3)no2)CC1 | inactive: 131%
67 | CC1CCCCN1CCCNC(=O)Cn1ncc2c3ccccc3n(Cc3ccccc3)c2c1=O (stereo unspecified) | inactive: 113%
68 | CCOc1ccccc1C(=O)N(C)c1ccccc1 | inactive: 92%
69 | O=C(O)c1ccc(CN2CCCCC2)cc1 | inactive: 79%

Row | Compound | survival
70 | CCCc1cc(=O)[nH]c(SCc2nc(-c3ccccc3)no2)n1 | active: 0%
71 | O=S1(=O)c2ccccc2N(Cc2ccc(F)cc2)c2ccccc21 | inactive: 78%
72 | O=C(NCCOCCn1c(=O)oc2ccccc21)Nc1ccc(F)cc1F | inactive: 76%
73 | C=C(C)c1cccc(C(C)(C)NC(=O)NC2CC(C)(C)NC(C)(C)C2)c1 | inactive: 107%
74 | COc1ccc(-c2cc(C(=O)Oc3ccc(C#N)cc3)no2)cc1 | inactive: 101%
75 | COc1ccc(CNC(=O)C(CC(C)C)NS(=O)(=O)c2ccc3c(c2)CCN3C(C)=O)cc1 (stereo unspecified) | inactive: 92%
76 | CCc1cccc(C)c1Nc1c(-c2ccc(N(C)C)cc2)nc2cnccn12 | inactive: 44%
77 | O=C(NC12CCC(O)C(SC1)C2O)c1ccccc1 (stereo unspecified) | inactive: 109%
78 | COc1cccc(CNC(=O)c2ccc3nc(CCc4ccccc4)oc3c2)c1OC | inactive: 73%
79 | CCCOc1ccc(CN2C(=O)C(=O)c3cccc(C)c32)cc1 | active: 39%
80 | CCOc1ccc(CNCCSc2nnnn2C)cc1 | inactive: 61%
81 | COc1cc(Br)cc2cc(S(=O)(=O)c3ccccc3)c(=O)oc12 | inactive: 84%
82 | Cc1cccc(NC(=O)CSc2nc3ccc(NC(=O)CCc4ccccc4)cc3s2)c1 | inactive: 80%
83 | Cc1ccc(-c2nc(CS(=O)(=O)CC(=O)N3CCN(c4ccccc4)CC3)c(C)o2)cc1 | inactive: 75%
84 | Cc1ccc(C2=NNC(C(O)C(O)C(O)C(O)CO)S2)cc1 (stereo unspecified) | inactive: 85%
85 | CCCSCCCNC(=O)c1sc2nc(C)cc(C)c2c1-n1cccc1 | inactive: 89%
86 | COc1cccc(NCc2nnc3n2CCCCC3)c1 | inactive: 94%
87 | Cc1ccc(-c2noc(-c3cccnc3N(C)Cc3ccc(Cl)cc3)n2)cc1 | inactive: 70%
88 | CCOC(=O)Cn1nnnc1C(C(C)C)N(Cc1ccc(F)cc1)Cc1cc2cc3c(cc2[nH]c1=O)OCO3 (stereo unspecified) | inactive: 73%
89 | CCOC(=O)c1c(S(=O)(=O)N2CCN(c3cccc(C(F)(F)F)c3)CC2)c(C)n(C)c1C | inactive: 116%
90 | CCCn1cc(S(=O)(=O)c2ccc(CC)cc2)c(=O)c2cc(F)c(N3CCN(C)CC3)cc21 | inactive: 79%
91 | CCOc1ccc(Cn2c(CNS(=O)(=O)c3ccc(CC)cc3)nc3cccnc32)cc1 | inactive: 95%

From PubChem BioAssay AID463173 (ICCB-Longwood Screening Facility, Harvard Medical School, 2010)
